Measured values from the RNAGym collection of RNA variant scans (doi:10.1093/nar/gkz1192).
Read counts are not given, so values of variants with three or more changes are uncertain.

B1: CPEB3 Ribozyme (parent)
chain: UAACAGGGGGCCACAGCAGAAGCGUUCACGUCGCAGCCCCUGUCAGAUUCUGGUGAAUCUGCGAAUUCUGCUGUAUAUCUC

Variants of: B1
Assay: self-cleavage, relative activity (ratio to wild type); higher = more cleavage; in vitro, sequencing
Summary of the method: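 Relative activity compares each variant's cleaved/total read fraction with that of the unmutated ribozyme. To get these fractions, barcoded CPEB3 ribozyme libraries from rounds of error-prone PCR were transcribed with T7 RNA polymerase for 5 hours at 37°C and then given 15 min of DNase I treatment before EDTA was added. The RNAs were reverse transcribed with template switching and sequenced on Illumina, and DNA sequencing linked barcodes to variants. A minimum of 5 reads applied, and three batches were averaged.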

| Variant | self-cleavage |
| --- | --- |
| A5G U25C A35G A45G A64G | 0.4 |
| A5U A28U U43A | 1.03 |
| A5U A28U U43C | 0.75 |
| A5U A20G A57G U58C | 0.36 |
| A5U C11U U60A | 0.42 |
| A5U U43G G46A | 0.47 |
| A5U A20U A21G U58C | 0.27 |
| A5U A28G A47U U67C C68G | 0.15 |
| A5G U25A C50U U54G A75G U80G | 0.07 |
| A5U G9U A35C | 0.07 |
| A5U C27A G33A U67C | 0.14 |
| A5G U51C A65U | 0.28 |
| A5U A35G U43C A56G U66C | 0.18 |
| A5G U26C G55A C71G | 0.43 |
| A5U U26C U60A | 0.59 |
| A5U C27G A45G U60C U74C | 0.15 |
| A5U G33A U49C | 0.48 |
| A5G U26C C37U U60A | 0.09 |
| A5U A35G C62U U80A | 0.21 |
| A5U U25C A35G U41A U51A A64U | 0.07 |
| A5U C23A U80C | 0.39 |

| Variant | self-cleavage |
| --- | --- |
| A5G U41C U66C A77G | 0.11 |
| A5U A47G U49A | 0.47 |
| A5U G8U A13C U25A U54A U60A | 0.05 |
| A5U C50U A56U U80G | 0.81 |
| A5G U31C U43A U72C A77G | 0.2 |
| A5U A28U U66C U72C U80A | 0.57 |
| A5G U43C U60A | 0.3 |
| A5U A28U C50A U51A U67A | 0.29 |
| A5U A65U U69C U72C | 0.24 |
| A5U A28G A35G C44G | 0.56 |
| A5U A13U C39U | 1.18 |
| A5G G33C A35G G53U G73A U74A | 0.03 |
| A5G U49A U69G | 0.47 |
| A5G U26C U51C G63A | 0.14 |
| A5G G30A U31C C32U G63U U74C | 0.5 |
| A5U A18G U26C C50U U69C | 0.65 |
| A5U C34U U43C A47G U60C U72C U80A | 0.1 |
| A5U U26C U69C | 0.2 |
| A5G U25C A57G U66C | 0.27 |
| A5G G30A A77G | 0.62 |
| A5G U26C U48C U54A | 0.27 |

| Variant | self-cleavage |
| --- | --- |
| A5U A13G U26C A45U G61A U76A | 0.28 |
| A5U A18G U25C A28U U51C U60C U72G | 0.05 |
| A5G U54C A56G U72C | 0.59 |
| A5U A21G U66C U67C | 0.25 |
| A5U C11G A56U | 0.18 |
| A5U A13G U58C U72C A77G | 0.57 |
| A5U G16A U54G U76G | 0.35 |
| A5U C32U U54A | 0.13 |
| A5G U43A A45G A47G U74C | 0.28 |
| A5U U31A U69A | 0.26 |
| A5U U43C A64U U67A | 0.17 |
| A5U A15G C23G C32A | 0 |
| A5U A18U U58A U74C | 0.36 |
| A5U A15C A21G U26A A47U U67C | 0.09 |
| A5U U49C U54A U60G | 0.14 |
| A5U C23G A45G | 0.25 |
| A5U A18G A35G U69C U78C | 1.37 |
| A5U C37A A45G U49C U60C U66A A77U | 0.07 |
| A5G U26A A35G U66C A75U | 0.43 |
| A5U U26A G55U A64C | 0.25 |
| A5U U48G A65U U67C | 0.19 |

| Variant | self-cleavage |
| --- | --- |
| A5U U49C U54A G55U A75G | 0.23 |
| A5G G24A C62A U69C | 0.09 |
| A5U A21U A35U C62U A65U | 0.13 |
| A5U A13G U26C A28U U31A U60C U69G | 0.06 |
| A5G U25C U80G | 0.5 |
| A5G U26A U69A | 0.34 |
| A5U C29U U49C A64U | 0.08 |
| A5G U26A A45U A57G U80C | 0.05 |
| A5G U41C G63A | 0.39 |
| A5U A20U A21G | 0.27 |
| A5U A35G A56G A57U | 1 |
| A5G U51A G70A | 0.12 |
| A5U C11U A18G U41A A64G | 0.12 |
| A5G G53A U60C A65G | 0.15 |
| A5U A21G U25C C40U A57G | 0.06 |
| A5G G52C A56G A64G | 0.25 |
| A5U U25C A35U | 0.41 |
| A5G U26C U41G G70A U80C | 0.37 |
| A5U A20G A28G U31G U43C | 0.14 |
| A5U A57G C59A U72C | 0.29 |
| A5U G9C C40U U51C A56G A64G | 0.03 |
